Test results as given in the supplement of paper PMC3334620.
Whole data set: some 33,000 sequences, median “E-score (-0.5 to 0.5)” near -0.013, cut for the highest 2% near 0.3. The list shows a part of the results.

Molecular target: T1, Msn1 (UniProt P22148)
T1 sequence: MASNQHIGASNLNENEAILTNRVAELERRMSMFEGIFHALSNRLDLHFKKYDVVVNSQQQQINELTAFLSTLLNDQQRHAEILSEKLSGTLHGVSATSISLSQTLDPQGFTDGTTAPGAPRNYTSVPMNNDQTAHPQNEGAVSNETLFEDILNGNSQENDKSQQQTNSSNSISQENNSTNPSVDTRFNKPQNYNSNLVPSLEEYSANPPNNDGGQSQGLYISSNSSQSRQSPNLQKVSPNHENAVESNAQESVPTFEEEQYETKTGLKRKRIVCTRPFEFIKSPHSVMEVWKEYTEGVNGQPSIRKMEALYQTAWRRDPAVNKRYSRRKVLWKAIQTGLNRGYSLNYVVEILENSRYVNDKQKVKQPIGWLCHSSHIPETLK
Experiment: PBM E-score (8-mer binding enrichment) (E-score (-0.5 to 0.5)); higher = stronger / more preferred TF binding; most listed sequences are background and not binding sites
Settings: protein concentration: 200 nM; construct: GST-full length
Experimental: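 Universal 'all 10-mer' protein binding microarrays (Agilent AMADID 015681) probed with GST-tagged S. cerevisiae TFs (full-length or DBD) made by in vitro transcription/translation (PURExpress), about 100-200 nM. Bound TF was detected with fluorescent anti-GST. Each ungapped 8-mer (which stands for itself and its reverse complement) is scored by the PBM enrichment score (E-score), a modified Wilcoxon-Mann-Whitney statistic from -0.5 to +0.5, computed with the Universal PBM Analysis Suite. Scale: above 0.35 generally sequence-specific binding.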

Row | Sequence | PBM E-score
1 | AGTGGATC | -0.0598
2 | ATATGGCG | 0.0445
3 | AGCACACG | -0.0792
4 | AAAATAAC | 0.0645
5 | CACGTGAA | -0.00614
6 | AGCCCAAT | -0.0201
7 | GTCGGCAC | -0.0725
8 | ACGAATGC | -0.0179
9 | ACTTTTCA | 0.151
10 | CCTTTGTA | 0.163
11 | CCACTGGG | 0.0913
12 | AGGCAATC | -0.122
13 | CGGGATCA | -0.189
14 | AAGTACGT | 0.159
15 | ATCGCTTG | -0.0704
16 | CACTCCGC | -0.0632
17 | ACTTTCAG | 0.0788
18 | GCACTCCA | -0.172
19 | GCCGAGAC | 0.0883
20 | CATATCTC | 0.0938
21 | ACGATCAT | -0.124
22 | CAGACAGA | 0.0672
23 | CATCCCAA | 0.148
24 | GGTACGAC | -0.0567
25 | GGCTACTA | -0.016

Row | Sequence | PBM E-score
26 | CTCGATGC | -0.106
27 | AACTAAGT | -0.0397
28 | GGCCAAGA | -0.148
29 | CGTGAGAG | -0.269
30 | CCCTGCAG | -0.245
31 | CCTTCACG | 0.0646
32 | CCAAAGTC | 0.113
33 | CGTTTTGC | -0.0285
34 | ATGTGTCC | 0.438
35 | GGCTGGAA | -0.193
36 | CTCGCACA | -0.0644
37 | GCTGGGGA | -0.22
38 | CTGACAGC | -0.0864
39 | GCATTACA | 0.0174
40 | CAAAAACC | 0.133
41 | AAAACCCG | 0.0176
42 | CTATTCAC | 0.097
43 | CAAGAAGA | 0.0336
44 | AAGAGTGT | 0.0143
45 | ACATCACT | -0.0274
46 | CATCAACG | -0.0418
47 | GATAGGAC | 0.0626
48 | GGGTTAGA | -0.178
49 | CAGCAATC | -0.0488
50 | ACGACATG | 0.364

Row | Sequence | PBM E-score
51 | TGGTACCA | -0.0646
52 | ACCTACAT | -0.0106
53 | CGCAAGAG | -0.0111
54 | ACGGTACT | -0.0539
55 | GGATAGAC | -0.0706
56 | GGGGCTAC | -0.288
57 | AACATGAT | 0.173
58 | CACGAACC | -0.099
59 | AAACACAC | 0.0922
60 | AAGCGATC | 0.0576
61 | TAATCCTA | -0.123
62 | AAATCGCT | -0.11
63 | CAGTAGCC | -0.286
64 | CCGGGAAG | -0.0813
65 | AAGATCGC | 0.0284
66 | CGATACAG | 0.121
67 | CCAATTTC | 0.00584
68 | AGAGTATG | -0.143
69 | CCGTCCGA | 0.0831
70 | ACACGTCC | 0.21
71 | GAACGAAA | -0.0121
72 | CATTGACG | 0.0256
73 | CCGTAGCA | -0.0746
74 | AGGTTAAC | -0.0876
75 | GGTACTTA | 0.00855

Row | Sequence | PBM E-score
76 | ATAGAGTC | -0.141
77 | ACCTTTGC | 0.00421
78 | CCAGTGGG | -0.244
79 | ATTATCTG | 0.0964
80 | CTGGAGGC | -0.262
81 | ATTGCGGC | -0.00373
82 | AGTTTATC | 0.107
83 | CTTTGCCA | -0.123
84 | CCATCGTA | 0.0514
85 | ATTCGGGA | 0.074
86 | CCCGGGAA | 0.0917
87 | AATTCTTA | -0.0044
88 | ACCGCAAA | 0.14
89 | AACATGTC | 0.401
90 | GACAGACA | 0.414
91 | AACTGCGG | 0.0882
92 | CGACAACG | 0.144
93 | ATTAACGA | 0.174
94 | AATAGAGG | -0.0697
95 | AAGTTTGG | 0.142
96 | ATCTTACG | 0.0146
97 | CCGCCGAG | -0.0459
98 | AAGCGAGT | 0.153
99 | ACTTATAG | -0.103
100 | ATAAAGAC | 0.162

Row | Sequence | PBM E-score
101 | ATTAAAAG | 0.156
102 | ATCCGCTC | -0.22
103 | GTCGCGTA | 0.186
104 | AAACGCGA | 0.0192
105 | ATCGCCAT | -0.107
106 | CGAAGTAC | 0.0703
107 | CATCGGCA | -0.0221
108 | CATCTTGG | -0.0375
109 | AGTGATAT | -0.0408
110 | TGAGAACA | -0.0303
111 | GAAGGGGC | -0.168
112 | GGATTACA | -0.105
113 | ACACACAC | 0.0227
114 | CGAGAATA | 0.0249
115 | GCAGTACA | 0.109
116 | TACTTGAA | 0.126
117 | AGGGCGGG | -0.184
118 | AGACCAAT | 0.0168
119 | CAACGAAG | -0.0539
120 | ATATGTTG | 0.0727
121 | AAGGCCAG | -0.149
122 | AGCGTACT | 0.02
123 | CTACCAAG | 0.0277
124 | AGGTGCAA | -0.061
125 | GTCGAGAA | 0.0485

Row | Sequence | PBM E-score
126 | CCCCAAAG | -0.247
127 | GGAAATCA | -0.0501
128 | GTGAAGAA | 0.0558
129 | ATATCTCC | 0.121
130 | ATGGACAG | 0.251
131 | GAACGTCA | -0.11
132 | GGAAGAGA | 0.0243
133 | CCGCCAGC | -0.278
134 | CGGTATTA | -0.0986
135 | ACAGATGG | -0.0439
136 | ACACGTGT | -0.0849
137 | AGGATGAC | 0.0513
138 | ATGGTCGA | 0.0685
139 | GGAGACTA | -0.049
140 | GATATGGC | -0.323
141 | ATTTCATG | -0.101
142 | ATTGAGTA | 0.162
143 | CGAAATGA | 0.15
144 | CAGAAGGC | -0.207
145 | CCGGGAGG | -0.314
146 | AGACAGAA | 0.00949
147 | CTGTTGGA | 0.0781
148 | AGCGGGAT | -0.231
149 | AAGGACCA | -0.0926
150 | ATATCGCA | -0.101

Row | Sequence | PBM E-score
151 | CGGATAAC | 0.154
152 | GAACCGAC | 0.0771
153 | CAGTATCC | 0.0646
154 | CTCCCTAC | -0.167
155 | GGGCGCAC | -0.147
156 | ATAAAATG | 0.341
157 | ACTCTGGC | 0.00726
158 | AATATTAC | 0.101
159 | CGTGGTCA | -0.144
160 | AGAGTCAT | -0.0634
161 | GCGCGTTA | 0.163
162 | AGCGTCAA | -0.15
163 | ACTTCGAA | 0.167
164 | ATTGACGC | -0.0689
165 | ATAACAAT | 0.00977
166 | TAAGGGGA | -0.0448
167 | ACCCCCAC | -0.357
168 | ATCATCGG | -0.0791
169 | GGGTTTGA | 0.0837
170 | ATTTCGGA | 0.239
171 | GTGTGTCA | 0.211
172 | GGACACGA | 0.396
173 | CATCAGAA | 0.00838
174 | AGGGCTGC | -0.212
175 | GAAACCCC | -0.194

Row | Sequence | PBM E-score
176 | CAGTCCTA | 0.0807
177 | ACCGGACT | 0.0676
178 | CAGCGATG | -0.111
179 | GAGCCAAC | -0.104
180 | GAGTTGAC | 0.0485
181 | AGTTCCCG | -0.0612
182 | AGCAAGAA | -0.0616
183 | AACTAGGC | -0.078
184 | CGCTTCCG | 0.0365
185 | GTCTGCAC | -0.027
186 | AAAGAGCC | -0.262
187 | ATGGCCTG | -0.136
188 | CTTTGCTC | -0.0119
189 | AGCTTAAG | -0.0841
190 | TAGCTGAA | -0.108
191 | ACATCACG | 0.161
192 | ACCGCCCC | -0.2
193 | TACACTAA | 0.0915
194 | ATGAGATG | 0.00393
195 | CCCCGCTC | -0.326
196 | ACGGTCCA | -0.114
197 | GCTATATA | 0.0156
198 | CGATCAAC | -0.107
199 | CCACGGAC | 0.115
200 | CGAGCCAA | -0.0147

Row | Sequence | PBM E-score
201 | GTCGCCTA | -0.0841
202 | AGCGAGCA | -0.0774
203 | AATACGCA | -0.151
204 | ACGCGGGC | -0.109
205 | AGGTATTC | 0.0358
206 | ACACCAGG | -0.109
207 | CTCGCTCC | -0.0169
208 | AAATCAAC | 0.0362
209 | CGATAATC | -0.161
210 | ACGTCACC | -0.0947
211 | CAAGTCCC | 0.148
212 | GTGGGACA | 0.455
213 | ATGTCCAC | 0.446
214 | ATCCTATA | 0.214
215 | GACCGTAC | -0.291
216 | CACTGAAA | 0.0169
217 | CATAGCCA | -0.0819
218 | AGTCGCTA | -0.0278
219 | CTAGGCCC | -0.389
